Consider 90 compounds from PMC4336329 (PLoS ONE, 2015).

The campaign covered roughly 310,000 compounds. About 14,000 (4.5%) showed an effect of 50% or more. Effects have a minus sign here. The list shows a part of the results.
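Further: peak tail current of the secondary pulse compared with the same well before compound.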

For this test, the target named is human ether-à-go-go-related gene (hERG) potassium channel (human, UniProt Q12809). Description: primary screen, population patch clamp on CHO cells stably expressing hERG. The procedure: Briefly, Chinese hamster ovary (CHO) cells stably expressing the hERG channel were dislodged from tissue culture flasks and dispensed into PPC plates. […] During the recording, background leak currents were estimated by a 100 ms step to -80 mV from an initial holding potential of -70 mV and subtracted from the subsequent current measurement. The campaign was conducted in two phases using slight differences in recording protocol. In the first phase, the initial voltage pulse used a 100 ms step to -30 mV from a holding potential of -70 mV, a 2 s conditioning step to +25 mV, and a 2 s test step to -30 mV. During the second phase of the screen, the potential during the conditioning step was raised to +45 mV. In both phases of the campaign, a secondary voltage pulse was applied using the same parameters as the second phase initial pulse. The initial and secondary pulses were applied in the absence of compound, and upon application of 1 μM and 10 μM test concentrations. […]
human ether-à-go-go-related gene (hERG) potassium channel, sequence (Q12809 whole entry, looked up): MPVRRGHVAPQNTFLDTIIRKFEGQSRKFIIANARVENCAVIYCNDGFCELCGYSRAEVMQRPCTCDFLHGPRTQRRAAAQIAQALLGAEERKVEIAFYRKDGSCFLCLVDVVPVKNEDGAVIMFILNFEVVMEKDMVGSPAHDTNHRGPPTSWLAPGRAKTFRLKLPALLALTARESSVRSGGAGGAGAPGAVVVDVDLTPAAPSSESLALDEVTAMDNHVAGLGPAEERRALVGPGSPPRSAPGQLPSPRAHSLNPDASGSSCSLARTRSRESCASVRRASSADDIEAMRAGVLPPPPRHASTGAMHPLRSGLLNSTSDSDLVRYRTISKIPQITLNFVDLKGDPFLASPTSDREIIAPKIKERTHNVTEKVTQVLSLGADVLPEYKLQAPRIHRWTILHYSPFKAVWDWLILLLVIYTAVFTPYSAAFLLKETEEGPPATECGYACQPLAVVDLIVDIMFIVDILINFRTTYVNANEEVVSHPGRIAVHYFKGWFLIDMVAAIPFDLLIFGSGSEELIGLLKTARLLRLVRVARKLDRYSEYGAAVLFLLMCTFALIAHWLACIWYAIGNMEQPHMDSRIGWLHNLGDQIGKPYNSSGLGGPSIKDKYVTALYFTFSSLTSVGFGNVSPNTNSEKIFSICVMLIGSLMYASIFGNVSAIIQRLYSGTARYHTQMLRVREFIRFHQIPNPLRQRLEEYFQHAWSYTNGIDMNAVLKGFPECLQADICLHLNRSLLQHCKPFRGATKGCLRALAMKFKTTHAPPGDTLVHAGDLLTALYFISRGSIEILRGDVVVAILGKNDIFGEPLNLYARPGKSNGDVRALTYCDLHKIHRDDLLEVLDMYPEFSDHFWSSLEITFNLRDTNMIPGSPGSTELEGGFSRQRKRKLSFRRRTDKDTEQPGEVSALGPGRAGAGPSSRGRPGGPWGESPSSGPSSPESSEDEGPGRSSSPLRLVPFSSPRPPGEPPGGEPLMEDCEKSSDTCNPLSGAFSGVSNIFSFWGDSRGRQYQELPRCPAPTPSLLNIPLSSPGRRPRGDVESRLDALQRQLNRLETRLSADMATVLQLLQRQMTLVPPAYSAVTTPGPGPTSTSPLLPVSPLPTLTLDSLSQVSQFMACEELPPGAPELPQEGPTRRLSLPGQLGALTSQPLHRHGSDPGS
`C/C(=N\NC(=O)c1ccc(Cl)cc1)c1cccc(NC(=O)c2cccnc2)c1`: the “hERG current change (%, negative = inhibition) at 10uM” value is -20%.
To `COc1nc(OCC#N)nc(N2CCCCC2)n1` belongs 9.65%.
For `O=C(Nc1nnc(CCOCCOCCc2nnc(NC(=O)c3ccco3)s2)s1)c1ccco1`, the “hERG current change (%, negative = inhibition) at 10uM” value was -0.704%.
To `COc1ccc(C(=O)c2ccsc2N)cc1` belongs 3.5%; to `CCOc1ccc(S(=O)(=O)Nc2ccn(C)n2)cc1`, -27.8%; to `O=C(COC(=O)c1ccccc1Nc1ccccc1F)c1ccccc1`, 12.7%.
In the case of `COc1cccc(OC)c1C(=O)Nc1ccc2c(c1)n(C)c(=O)n2C`, the “hERG current change (%, negative = inhibition) at 10uM” value turned out to be 18.2%.
To `COc1ccc(N2CCN(C(=O)c3cccc4nc(C)oc34)CC2)cc1` belongs 13.5%; to `COc1ccc(Nc2nnc(SCC(=O)N3CC(=O)Nc4ccccc43)s2)cc1`, 14.8%.
`CN(C(=O)COC(=O)c1cccc(S(=O)(=O)N2CCCCC2)c1)C1CCS(=O)(=O)C1` (stereo not drawn): the “hERG current change (%, negative = inhibition) at 10uM” value is reported as -19.4%.
To `COc1ccccc1OCC(=O)NC1CCSc2ccccc21` (stereo not drawn) belongs -15.8%.
To `COc1ccc(NC(=O)CN(C)S(=O)(=O)c2ccc3c(c2)CCCN3C(C)=O)cc1` belongs 12.1%; to `CC1(C)CC(=O)C=C(NCc2ccncc2)C1`, -1.21%.
To `CC(C)(C)n1cn[nH]c1=S` belongs 22%; to `O=C(Oc1ccc2c(=O)c(Cl)coc2c1)c1cccnc1`, 16.3%; to `COc1ccc(S(=O)(=O)N2CCC(C(=O)N3CCc4ccccc4C3)CC2)cc1Cl`, -12.7%.
`O=C(O)Cc1ccc(NC(=O)c2cccs2)cc1`: the “hERG current change (%, negative = inhibition) at 10uM” value turned out to be 5.61%.
Turning to `Cc1cccc(C)c1OCc1nnc(NC(=O)CSc2ccc(Cl)cc2)s1`, the “hERG current change (%, negative = inhibition) at 10uM” value is given as 8.78%.
To `COC(=O)c1ccc(C)c(NC(=O)c2ccc(Cl)c([N+](=O)[O-])c2)c1` belongs -7.31%.
To `CC(=O)c1cc(C(=O)N2CCc3c([nH]c4ccccc34)C2C2CCCCC2)[nH]n1` (stereo not drawn) belongs -10.3%.
In the case of `CCn1cc(C(=O)OCC(=O)Nc2cccc(Cl)c2Cl)c(=O)c2ccc(C)nc21` it was 1.81%; in that of `COc1ccc(C2N(c3ccc(OC)cc3)C(=S)N3CCCN23)cc1` (stereo not drawn), 0.191%.
With `CCc1cc(=O)n2[nH]c(C)c(-c3ccccc3OC)c2n1`, the “hERG current change (%, negative = inhibition) at 10uM” value is -5.14%.
Regarding `COc1ccc(-c2nc(-c3ccncc3)no2)c(OC)c1`, the “hERG current change (%, negative = inhibition) at 10uM” value is 5.38%.
To `Cc1ccc(CN2CCCNC2=O)cc1` belongs -13%; to `Cc1cccc(CCNC(=O)C2CCC(CNc3c(N4CCCC4)c(=O)c3=O)CC2)c1` (stereo not drawn), 10.3%; to `CCN(CCCNC(=O)C1CCN(S(=O)(=O)CC)CC1)c1ccccc1`, -21.7%.
As for `COc1ccccc1NC(=O)CSCC(=O)N1c2ccccc2CCc2ccccc21`, the “hERG current change (%, negative = inhibition) at 10uM” value is -8.71%.
In the case of `COc1cccc(N(CC(=O)N/N=C(\C)c2cccs2)S(C)(=O)=O)c1` it was 6.58%; in that of `CC(C)(C)NC(=O)CN(CCN1CCOCC1)C(=O)CNS(=O)(=O)c1ccc(Cl)cc1`, 27.7%; in that of `CCSc1nnc(NC(=O)CSc2nc3c(cc2C#N)CCCC3)s1`, 5.33%.
Take `Cc1ccc(/C=N/n2c(=O)c(C(C)(C)C)nn3cnnc23)cc1`: the “hERG current change (%, negative = inhibition) at 10uM” value turned out to be 0.988%.
In the case of `C=CCN(CC(=O)NC1CCCC1)C(=O)C(=O)Nc1ccc2c(c1)OCCO2` it was 25%.
As to `O=C(NCc1nc(-c2ccccc2)cs1)c1ccccc1`, the “hERG current change (%, negative = inhibition) at 10uM” value is reported as 8.6%.
In the case of `O=C(Nc1cc(C(F)(F)F)ccc1N1CCOCC1)c1ccccc1` it was 12.6%; in that of `Cc1nc(Nc2cccc(O)c2)c2oc3ccccc3c2n1`, 12.7%.
To `CC(=O)Nc1c2c(nn1-c1ccccc1C)CS(=O)(=O)C2` belongs 13.7%; to `Cc1cccc(OCCc2nnc(N)s2)c1C`, 15.2%.
In the case of `O=C(Nc1ccc(F)cc1)N1CCC(c2nc3c(nnn3Cc3ccccc3Cl)c(=O)[nH]2)CC1` it was 8.68%; in that of `Cc1ccc(OCc2ccc(C(=O)N3CCCC3)o2)cc1C`, -48.6%.
For `CCS(=O)(=O)c1ccccc1C(=O)NC1CCCc2ccccc21` (stereo not drawn), the “hERG current change (%, negative = inhibition) at 10uM” value was 22.7%.
Turning to `O=C(CSc1n[nH]c(-c2ccccc2)n1)Nc1ccc(N2CCOCC2)cc1`, the “hERG current change (%, negative = inhibition) at 10uM” value was 14.5%.
In the case of `C=CCNC(=S)N1CCN(c2cccc(C(F)(F)F)c2)CC1` it was -36.4%; in that of `Cc1ccc(OCCn2ccc(=O)[nH]c2=O)cc1C`, 1.46%.
Regarding `N#C/C(=C1\C(=O)Nc2c(Cl)cc(Cl)cc21)c1nnc2n1CCCCC2`, the “hERG current change (%, negative = inhibition) at 10uM” value was -5.38%.
In the case of `CCOC(=O)c1ccc(NC(=O)C2CCN(S(=O)(=O)c3c(C)nn(C)c3C)CC2)cc1` it was -28.3%.
To `CC(=O)Nc1ccc(S(=O)(=O)Nc2ccc(N3CCOCC3)c(F)c2)cc1` belongs 0.0769%.
Take `O=C(NCc1ccccc1)C(=O)NCC(c1ccco1)N1CCOCC1` (stereo not drawn): the “hERG current change (%, negative = inhibition) at 10uM” value was -2.29%.
Turning to `CC1CCCN(C(=O)c2ccc(S(=O)(=O)Nc3ccccc3Cl)cc2)C1` (stereo not drawn), the “hERG current change (%, negative = inhibition) at 10uM” value stood at 6.76%.
In the case of `O=C(Nc1ccc2c(c1)OCO2)N1CCN(c2ccc(F)cc2)CC1` it was -28%; in that of `CCOC(=O)C(=O)Nc1nnc(Cc2ccc(OC)c(OC)c2)s1`, -5.76%; in that of `OCC[C@H]1C[C@@H](O)[C@H](O)[C@]2(CCCCO2)O1`, 3.51%.
To `C=CCc1cccc2cc(C(=O)NC(C)(C)C)c(=O)oc12` belongs 5.26%; to `CC(=O)NC(CCS(C)(=O)=O)C(=O)Nc1nc(C)cs1` (stereo not drawn), 0.744%; to `CCOCCCNC(=O)C1CCN(C(=O)N(C)C)CC1`, 11.3%.
To `Cc1ccc(Nc2nc3c(c(=O)[nH]c(=O)n3C)n2Cc2ccc(F)cc2)cc1` belongs 19.9%; to `CCC(C(=O)NCCCN1CCN(CCCNC(=O)C(CC)c2ccccc2)CC1)c1ccccc1` (stereo not drawn), 31.2%.
On to `OCC12CO[C@@H]3c4ccccc4[C@H](OC1)N32` (stereo partly drawn), for which the “hERG current change (%, negative = inhibition) at 10uM” value was 18.3%.
Turning to `COC(CNc1ccc([N+](=O)[O-])c(NCC(OC)OC)c1C#N)OC`, the “hERG current change (%, negative = inhibition) at 10uM” value worked out at 5.62%.
To `Cc1cc(NS(=O)(=O)c2ccc(NC(=O)CSc3nc4sc(C(=O)O)c(C)c4c(=O)[nH]3)cc2)no1` belongs 15.8%; to `Cc1cccc(OC(C)C(=O)N2CCCN(C)CC2)c1C` (stereo not drawn), 1.75%; to `CCCNC(=O)c1ccc(COc2ccc(Cl)cc2)o1`, -17.4%.
For the compound `COc1ccccc1NS(=O)(=O)c1cc(C(=O)NCc2ccco2)ccc1C`, the “hERG current change (%, negative = inhibition) at 10uM” value is on record as -26.1%.
In the case of `Cc1c(C(=O)N2CCN(S(=O)(=O)c3cc(F)ccc3F)CC2)oc2ccccc12` it was -3.34%; in that of `Cc1ccc(SCC(=O)N(C)CC(=O)Nc2cccc(F)c2)cc1`, -24.8%; in that of `Cc1ccc(Nc2nc(N)nc(CSC(=S)N3CCN(c4ccccc4)CC3)n2)cc1`, 8.32%.
In the case of `Cc1c(/C=N/NC(=O)c2ccccc2O)c2ccccn2c1C(=O)c1ccc(F)cc1` it was -4.91%; in that of `O=C(COC(=O)CCc1nc2ccccc2n1-c1ccccc1)Nc1cccc(Cl)c1`, 2.63%; in that of `Cc1noc(C)c1C(=O)NCc1cccs1`, 8.73%.
To `O=C(CC1Sc2ccccc2NC1=O)c1ccc(Br)cc1` (stereo not drawn) belongs 22.4%; to `CCCCCCCCS(=O)C1CCS(=O)(=O)C1` (stereo not drawn), 4.04%; to `Cc1ccc(CCSc2ccc(C(C)C)cc2)cn1`, -6.79%.
On to `CN(CC(=O)Nc1ccc(F)cc1)C(=O)COC(=O)c1ccc(=O)n(Cc2ccccc2)n1`, for which the “hERG current change (%, negative = inhibition) at 10uM” value is recorded as -25%.
Consider `O=C(O)c1ccc(NS(=O)(=O)c2ccc3c(c2)C(=O)c2cc(S(=O)(=O)Nc4ccc(C(=O)O)cc4)ccc2-3)cc1`, for which the “hERG current change (%, negative = inhibition) at 10uM” value worked out at 6.65%.
In the case of `Nc1[nH]c(=O)[nH]c(=O)c1N=Nc1ccccc1Cl` it was 19.6%.
To `C(CNC1C2CC3CC(C2)CC1C3)CN1CCOCC1.Cl` (stereo not drawn) belongs 4.95%; to `Cc1cc(C(=O)NCC(=O)OCC(=O)N(C(C)C)C(C)C)ccc1[N+](=O)[O-]`, 10.6%; to `Cc1[nH]c(=O)[nH]c(=O)c1S(=O)(=O)Nc1ccc(F)c(Cl)c1`, 22%.
In the case of `CC(=O)Nc1cc(C(=O)NCc2ccco2)ccc1Sc1ccc(F)cc1` it was -40.8%; in that of `Cc1cc(N2C(=O)C(O)=C(C(=O)c3cc4ccccc4o3)C2c2ccc(OC(C)C)cc2)no1` (stereo not drawn), 0.512%; in that of `CCc1ccc(C2CC(=O)N(c3cccc(F)c3)C3=C2C(=O)OC3)cc1` (stereo not drawn), -43%.
With `CNC(=O)C(=O)N/N=C/c1ccc(Br)cc1`, the “hERG current change (%, negative = inhibition) at 10uM” value is reported as 3.7%.
To `COC(=O)c1cnc(NNS(=O)(=O)c2ccc(C(F)(F)F)cc2)nc1C(F)(F)F` belongs -0.993%; to `CCCOc1ccc(/C=N/NC(=O)CN2CCCCC2)cc1`, -49.7%.
In the case of `Oc1ccc(/C=N/Nc2cc(N3CCOCC3)nc(N3CCOCC3)n2)cc1` it was -3.15%; in that of `Cc1cccc(C(=O)Nc2ccc(C(=O)/C=C/c3ccncc3)cc2)c1`, -20%; in that of `CCCc1nc(N)c(C#N)c(-c2cccnc2)c1CC`, -13.7%.
In the case of `CCc1ccc(NC(=O)C(=O)NCC2CCCO2)cc1` (stereo not drawn) it was 10%; in that of `Cc1ccc(N/N=C2\CCS(=O)(=O)c3sccc32)cc1`, 28.4%; in that of `COC(=O)CC(c1ccc(OC)c(OC)c1)c1ccc(OC)c(OC)c1`, 11.5%.
